In all, about 33,000 sequences were measured (“E-score (-0.5 to 0.5)”: median about -0.056, highest 2% from about 0.38 on). Some of the results follow.
Each sequence was assayed against Stb4 (UniProt P50104) (assay: PBM E-score (8-mer binding enrichment) (E-score (-0.5 to 0.5)); higher = stronger / more preferred TF binding; most listed sequences are background and not binding sites). Settings: protein concentration: 200 nM; construct: GST-DNA-binding domain.
Procedure, shortened: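 Yeast transcription factors, full-length or as DNA-binding domains, were expressed with a GST tag using PURExpress in vitro transcription/translation. At about 100-200 nM they were applied to universal all-10-mer Agilent arrays, double-stranded by primer extension on fresh or once-stripped slides. Fluorescent anti-GST detected bound protein, and masliner normalised the scans. E-scores for ungapped eight-base words, pooled with reverse complements, came from the Universal PBM Analysis Suite.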

Point of comparison: ATGACCAA, “PBM E-score” value 0.0323. Against it:
- GGTCCACA — lower, -0.131
- CTCTGAGC — lower, -0.168
- AAAGGACC — lower, -0.0172
- CTCCAGCA — lower, -0.28
- CCGAACAC — higher, 0.372
- TCGTAAGA — lower, 0.0201
- GTGTAACA — lower, -0.181
- AAGAGAAT — lower, 0.0169
- ATTGCTAC — lower, -0.0804
- AAGTGTTC — higher, 0.172
- CGGGAACC — higher, 0.301
- AAGTATGA — lower, -0.0353
- GTAGTCAA — lower, -0.1
- GGATAGCC — higher, 0.248
- GCCCCTAC — lower, -0.104
- AGTTAAAA — higher, 0.045
- ACAAGGTA — lower, 0.0227
- AAACTCCG — higher, 0.301
- GTATATAC — lower, -0.0897
- ACCTTTAA — higher, 0.0727
- TCGACGCA — lower, -0.0683
- CTGTCATC — lower, -0.138
- CATTAAGC — lower, -0.0965
- CTCGTCCA — lower, -0.235
- AAGATCGA — higher, 0.0385
- GTCATGAA — lower, -0.0398
- AATGTGAT — lower, -0.15
- AGGCTACT — lower, -0.15
- ACGGTCGC — lower, -0.121
- GATTCACC — lower, 0.029
- GTCGACCA — lower, -0.0625
- AGCGCACC — lower, 0.00643
- AGGGTGTA — lower, -0.093
- AAATGAGG — lower, -0.113
- GCCTCGCC — lower, 0.0101
- ATGTCGAC — lower, -0.138
- CATCTCAG — lower, -0.198
- CATGCAAA — lower, -0.141
- ACGACACC — lower, 0.0194
- CAGCTGCG — higher, 0.102
- CTATCGAA — lower, -0.226
- AACCACCG — higher, 0.1
- ACGCGGAA — higher, 0.329
- GTACTTCA — lower, 0.0185
- ACCGTAGA — lower, -0.0236
- AAGGGCGG — higher, 0.0702
- CGTACACG — lower, -0.0989
- AGCACTCA — lower, -0.0646
- GACATTTA — lower, -0.124
- CATCATCA — lower, -0.13
- GGCCAAAA — lower, 0.00575
- AGATGCGG — higher, 0.0776
- CCAACCTA — lower, -0.116
- CATAACAC — lower, -0.0742
- CACCATAG — lower, -0.121
- CGGTCTGC — lower, -0.0321
- AATTCCAT — lower, -0.0656
- CGACGAAA — lower, -0.0666
- GATAACCC — higher, 0.0517
- ATTGTCCC — higher, 0.116
- GACTTGGA — higher, 0.0627
- CGTTGGAC — lower, -0.167
- ACGGTGGC — lower, -0.0688
- AAAGAAGA — lower, -0.0578
- AACGCAGG — lower, -0.122
- CCGGTATC — higher, 0.272
- ACCCGGTG — higher, 0.199
- CAAATGGC — lower, -0.166
- ACGATGAA — lower, -0.251
- AAAACGCA — lower, -0.0311
- ACATTTGC — higher, 0.0649
- ACAGAATG — lower, -0.144
- GGCCGCTA — lower, 0.0133
- ACAACCCG — higher, 0.253
- AATGGACC — higher, 0.121
- ATAGTATC — lower, 0.0279
- AGCAAGTA — lower, -0.226
- ACCTGATG — lower, -0.173
- AGGGTTAA — lower, -0.149
- CTGAGGAA — lower, -0.153
- CTGCTATC — higher, 0.0488
- GGTCTTGA — higher, 0.0566
- AATTCGGG — higher, 0.39
- AAAGCCAG — lower, -0.246
- ACACAAGC — lower, -0.23
- TGACTTAA — lower, -0.174
- AAATTCAA — lower, -0.229
- ACACTACT — lower, -0.0397
- CGAATCCC — higher, 0.21
- CATCCTAA — lower, -0.079
- GAGAATAC — lower, 0.00299
- CATGACAA — lower, -0.0893
- CAGCCAGG — lower, -0.369

— the supplement of paper PMC3334620
